Among all 310,000 compounds or so, about 2,200 (0.71%) showed an effect of 50% or more. Effects have a minus sign here. Some of the results follow.
Each molecule was assayed against human ether-à-go-go-related gene (hERG) potassium channel (human, UniProt Q12809) (assay: primary screen, population patch clamp on CHO cells stably expressing hERG).
human ether-à-go-go-related gene (hERG) potassium channel, sequence (Q12809 whole entry, looked up): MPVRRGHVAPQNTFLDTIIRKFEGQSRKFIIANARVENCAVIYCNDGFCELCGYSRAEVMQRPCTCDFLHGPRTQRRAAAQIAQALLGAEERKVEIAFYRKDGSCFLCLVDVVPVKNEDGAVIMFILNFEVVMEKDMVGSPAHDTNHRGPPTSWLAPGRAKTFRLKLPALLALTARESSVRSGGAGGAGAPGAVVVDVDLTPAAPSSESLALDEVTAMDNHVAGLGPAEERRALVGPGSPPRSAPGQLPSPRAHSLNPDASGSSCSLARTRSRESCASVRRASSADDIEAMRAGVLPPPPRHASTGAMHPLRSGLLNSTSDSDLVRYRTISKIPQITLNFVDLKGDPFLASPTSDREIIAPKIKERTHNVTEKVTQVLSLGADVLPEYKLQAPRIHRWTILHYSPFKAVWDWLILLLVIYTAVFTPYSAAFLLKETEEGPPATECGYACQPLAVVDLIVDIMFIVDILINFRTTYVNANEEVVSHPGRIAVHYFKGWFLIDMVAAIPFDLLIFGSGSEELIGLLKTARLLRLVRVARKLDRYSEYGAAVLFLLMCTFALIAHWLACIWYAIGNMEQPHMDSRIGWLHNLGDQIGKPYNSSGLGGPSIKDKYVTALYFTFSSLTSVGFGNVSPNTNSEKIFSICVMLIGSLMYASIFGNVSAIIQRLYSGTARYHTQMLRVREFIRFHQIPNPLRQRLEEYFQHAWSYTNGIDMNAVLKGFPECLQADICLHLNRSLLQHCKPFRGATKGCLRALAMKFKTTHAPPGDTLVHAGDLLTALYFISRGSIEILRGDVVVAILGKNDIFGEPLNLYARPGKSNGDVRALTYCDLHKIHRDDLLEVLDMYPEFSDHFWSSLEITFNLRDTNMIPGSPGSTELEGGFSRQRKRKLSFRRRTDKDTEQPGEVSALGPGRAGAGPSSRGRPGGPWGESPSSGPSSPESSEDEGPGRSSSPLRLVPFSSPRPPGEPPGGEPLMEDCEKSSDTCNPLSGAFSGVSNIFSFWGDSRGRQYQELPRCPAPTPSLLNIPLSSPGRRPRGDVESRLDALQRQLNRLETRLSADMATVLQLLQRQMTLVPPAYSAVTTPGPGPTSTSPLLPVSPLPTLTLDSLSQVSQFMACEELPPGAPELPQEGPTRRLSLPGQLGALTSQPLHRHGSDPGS

Row | SMILES | hERG current change (%, negative = inhibition) at 1uM [%]
1 | O=C(Cc1cccs1)N1CCC(c2nc3c(nnn3Cc3ccc(F)cc3)c(=O)[nH]2)CC1 | 7.18
2 | O=C(CNc1ccc(Br)cc1)c1ccc(Br)s1 | 12.9
3 | O=C(c1cc(-c2ccccn2)nc2ccccc12)N1CCN(c2ncccn2)CC1 | -8.44
4 | CC(C)(C#N)NC(=O)C(=O)c1c(-c2ccccc2)cc2ccccn12 | 1.84
5 | CC(=O)N1CCN(CC(O)COc2ccc(Br)cc2)CC1.O=C(O)C(=O)O (stereo not shown) | 4.55
6 | Cc1ccc(NC(=O)c2cc(S(=O)(=O)N3CCOCC3)c(Br)s2)cc1 | 13.2
7 | CCn1c(SCC(=O)Nc2ccc(C)cc2)nc(O)cc1=O | 7.96
8 | N#Cc1c(N2CCNCC2)nc(-c2ccco2)c2c1CCCC2 | 13.6
9 | CS(=O)(=O)N1N=C(c2cccs2)CC1c1ccc(Cl)o1 (stereo not shown) | 6.92
10 | NNC(=O)CCS(=O)(=O)c1ccc2ccccc2c1 | 17
11 | CC1CCCC(C)N1C(=O)c1ccc(S(=O)(=O)N2CCCC2)cc1 (stereo not shown) | 6.18
12 | O=C(CSc1nnc(-c2c[nH]c3ccccc23)n1-c1ccc(F)cc1)NCc1ccco1 | -0.439
13 | Cn1c(=O)c2c(nc(CN3CCCCC3)n2CCCc2ccccc2)n(C)c1=O | 0.681
14 | COCc1cc(CN2CCCC(C(=O)c3cccc(C(F)(F)F)c3)C2)ccc1OC (stereo not shown) | -1.37
15 | Cc1ccccc1C(=O)NC1CCN(CC(=O)N2CCCCC2C)CC1 (stereo not shown) | 10.5
16 | CCO[C@@H]1OC(C(=O)N2CCN(C)CC2)=C[C@H](c2csc3ccccc23)[C@H]1CCCO | 0.669
17 | CC(=O)CSc1nc2ccccc2o1 | 13.9
18 | COc1cc2cc(C(c3nnnn3C(C)(C)C)N3CCc4ccccc43)c(=O)[nH]c2cc1OC (stereo not shown) | 0.194
19 | COc1ccc(C(CC(=O)c2ccccc2)S(=O)(=O)c2ccc(C)cc2)cc1 (stereo not shown) | 13.9
20 | CC(C)NCCOCCSc1ccc(Cl)cc1.O=C(O)C(=O)O | -15.9
21 | COCCN1C=C2C(=O)C(C)(OC(=O)C3CCCC3)C(=O)C(c3ccccc3)=C2C=C1CCCC(=O)OC (stereo not shown) | 4.56
22 | O=C(c1ccccc1)C1CN(c2ccccc2)CC1c1ccc(Cl)cc1 (stereo not shown) | 21.4

Row | SMILES | hERG current change (%, negative = inhibition) at 1uM [%]
23 | CCCCn1c(N)c(N(CC(C)C)C(=O)c2cc(=O)[nH]c3ccccc23)c(=O)[nH]c1=O | 4.05
24 | CCCN(CCC)Cc1c(C(=O)N/N=C/c2ccc(C)o2)nnn1-c1nonc1N | 9.95
25 | COc1ccc(OC)c(C(c2nnnn2C2CCCC2)N2CCc3ccccc3C2)c1 (stereo not shown) | -6.55
26 | CC(C)CC(=O)NCC(C)NC(=O)CC(C)C (stereo not shown) | 0.917
27 | O=C(NC1CCCc2ccccc21)C1CCC(CNS(=O)(=O)c2cccc3nsnc23)CC1 (stereo not shown) | 0.23
28 | CC(C)(C)c1cc(CCC(=O)NCC2CCCO2)cc(C(C)(C)C)c1O (stereo not shown) | 12.9
29 | CCOC(=O)Nc1nc(C)c(C(=O)c2ccc(Cl)cc2)s1 | 21.6
30 | O=c1[nH]c2ccc(NC(=S)NCCc3ccccc3)cc2[nH]1 | 6.17
31 | N#Cc1ccccc1S(=O)(=O)Nc1ccc2c(c1)OCCO2 | 14.1
32 | O=C1C2CCCN2C(c2ccccc2F)N1c1ccc(Cl)cc1 (stereo not shown) | 8.03
33 | O=c1ccc(S(=O)(=O)N2CCC(Cc3ccccc3)CC2)c[nH]1 | 6.01
34 | N#Cc1ccccc1-n1c(N)c(C(=O)N2CCCC2)sc1=S | -1.76
35 | O=C(N/N=C/c1ccc([N+](=O)[O-])o1)C(O)c1ccccc1 (stereo not shown) | 2.98
36 | Cc1cc(OC(=O)c2cccc([N+](=O)[O-])c2)c(C)cc1CN1CCOCC1 | 14.4
37 | CC(=O)c1c(C)nc(-c2ccc3c(c2)OCO3)n1O | 9.89
38 | CC(C)CC(=O)O/N=C1\C(=O)N(c2ccccc2)c2ccccc21 | 15.3
39 | Cc1ccc(C)c(S(=O)(=O)N2CCC3(CC2)OCCN3S(=O)(=O)c2cccs2)c1 | 6.67
40 | CCCCCN(C(=O)CCC(=O)OCCOc1ccc(OC)cc1)c1c(N)n(CCCC)c(=O)[nH]c1=O | 5.05
41 | CCOC(=O)c1ccccc1NC(=O)CSc1nnc(C(C)C)n1CC | 8.81
42 | O=C(CN1C(=O)C(=O)c2ccccc21)OCN1C(=O)c2ccccc2C1=O | 19.6
43 | CC(=O)Nc1ccc(S(=O)(=O)Nc2nc3ccccc3nc2Nc2ccc(O)cc2)cc1 | 13.4
44 | Cc1ccsc1C(=O)C1CCCN(Cc2cc(F)ccc2-n2cccn2)C1 (stereo not shown) | -45.5

Row | SMILES | hERG current change (%, negative = inhibition) at 1uM [%]
45 | CC1(C)C(N(O)C(=O)Nc2ccc(Cl)cc2)N(c2ccc(Cl)cc2)C(=O)N1CC(=O)NN (stereo not shown) | -5.8
46 | COC(=O)c1nn(-c2ccc(OC)cc2)c(=O)cc1Oc1cccc(Cl)c1 | -0.405
47 | COc1ccc(OC)c(N(CC(=O)NCCSCc2ccc(C)cc2)S(C)(=O)=O)c1 | 7.2
48 | CC(=O)Nc1ccc(S(=O)(=O)NC2(C(F)(F)F)C(=O)Nc3c2c(=O)n(C)c(=O)n3C)cc1 (stereo not shown) | 6.29
49 | COc1cc(C(O)P(=O)(OCCC(C)C)c2ccc(N(C)C)cc2)cc(OC)c1OC (stereo not shown) | 10.7
50 | Cc1ccc(C(C)C)c(OCCNS(C)(=O)=O)c1 | 9.91
51 | COc1ccc(C(=O)Nn2c(SCC(=O)N3CCC(C)CC3)nc3ccccc3c2=O)cc1 | 0.232
52 | COc1ccc(N2CCN(c3oc(COc4ccccc4Cl)nc3C#N)CC2)cc1 | 16.7
53 | Cc1ccc(S(=O)(=O)N2CCCCC2C(=O)O)cc1 (stereo not shown) | 8.79
54 | O=C(c1c(O)c2ccccc2oc1=O)C1CCC1 | 4.07
55 | CC1(C)Cc2c(sc3ncn4c(=S)[nH]nc4c23)CO1 | 22.8
56 | CCCn1c(=N)n(CCOc2ccc(OC)cc2)c2ccccc21 | -22
57 | CCOc1ccc(NC(=O)CCC(=O)OC)cc1 | 1.46
58 | COc1ccc(C(=O)Nc2cnc(NC(=O)c3cccs3)cc2C)cc1 | 7.72
59 | O=C(O)c1cccc2sc3cc(Cl)ccc3c(=O)c12 | 8.42
60 | O=S(=O)(Nc1ccc(Cc2ccncc2)cc1)c1ccc(Cl)cc1 | 12
61 | CC1=C(C#N)C(NC(=O)C2CC2)(C(F)(F)F)C(=O)N1 (stereo not shown) | 5.98
62 | CC(C)c1ccc(N(C(=O)c2csnn2)C(C(=O)NC(C)(C)C)c2ccncc2)cc1 (stereo not shown) | -2.31
63 | Cc1csc(SCC(=O)Nc2nc(-c3ccccc3)cs2)n1 | -1.95
64 | O=C(COC(=O)c1cccc(S(=O)(=O)N2CCCC2)c1)Nc1ccccc1 | 14.2
65 | O=C(Nc1ccccc1)N(CCCN1CCOCC1)Cc1cc2cc3c(cc2[nH]c1=O)OCCO3 | 9.12
66 | Cc1nn(C)c(C(=O)Nc2cccc(CN3CCOCC3)c2)c1Br | 3.96

Row | SMILES | hERG current change (%, negative = inhibition) at 1uM [%]
67 | Cc1cc(NC(=O)c2cc(-c3ccc(Br)cc3)on2)no1 | 15.5
68 | COc1ccc(C(=O)N2CCN(c3nc(C4CC4)nc4sc(C)c(C)c34)CC2)cc1.Cl | 12
69 | OCCN(CCO)c1ncnc2c1oc1ccc(Br)cc12 | -6.35
70 | COc1ccc(NC(=O)COC(=O)CNC(=O)C2CCCCC2)cc1 | 10.5
71 | O=C1/C(=C\c2cccnc2)SC(=S)N1c1ccc(F)cc1 | 7.73
72 | Cc1ccc(C)c(N2CCN(C(=O)CCCCCn3c(=S)[nH]c4ccc(N5CCOCC5)cc4c3=O)CC2)c1 | 10.5
73 | OC(c1ccccc1)c1nccc2ccccc12 (stereo not shown) | 4.12
74 | COCCn1nnnc1C(C(C)C)N1CCC(Cc2ccccc2)CC1.Cl (stereo not shown) | -28.5
75 | CN(/C(=N\S(=O)(=O)c1ccccc1)c1ccccc1)c1ccc(O)cc1 | 4.72
76 | CCOC(=O)C1CCN(C(=O)C(C)Sc2ccc(Cl)cc2)CC1 (stereo not shown) | 12.3
77 | CCCc1nn2c(=O)cc(COc3ccc(NC(=O)c4ccco4)cc3)nc2s1 | -8.38
78 | Cn1nnc2cc(C(=O)NC3CC3)ccc21 | 0.525
79 | CCCNC(=O)c1[nH]c(C)c(C(C)=O)c1C | 22
80 | CCC(CC)C(=O)N1CC(=O)Nc2ccc(Br)cc2C1c1ccccc1 (stereo not shown) | -4.08
81 | Cc1cc([N+](=O)[O-])nn1CCCC(=O)Nc1sc2c(c1C(N)=O)CCCC2 | -6.57
82 | CCOc1ccc(CCNC(=O)CCn2ccc3cc(S(=O)(=O)N4CCCC4)ccc32)cc1 | 7.28
83 | COc1ccc(C(=O)Nc2ccc(Cc3ccncc3)cc2)cc1Br | 9.56
84 | O=C(Nc1cccnc1)OC1CCCC1 | 22
85 | CCCOC(=S)Nc1ccccc1 | 9.91
86 | COc1ccc2[nH]c(=O)c(CN(C(=O)c3cccnc3)c3ccccc3C)cc2c1 | 11.6
87 | O=C(/C=C/c1ccc(Cl)cc1Cl)NCCSc1ccccc1 | 16.7
88 | CCOc1ccc(N=C2NC(=O)C(CC(=O)Nc3ccc(OC)cc3)S2)cc1 (stereo not shown) | 11.7

From publication PMC4336329 (PLoS ONE, 2015)
